Experimental findings from the supplement of paper PMC10681739 are described below.

± gives the standard deviation of the averaged measurements. In all, about 4,100 sequences were measured (“arbitrary fluorescence units”: median about 780, highest 2% from about 22,000 on). The list shows a part of the results.

The assay deals with T1, ETS1 (UniProt P14921).
T1 sequence: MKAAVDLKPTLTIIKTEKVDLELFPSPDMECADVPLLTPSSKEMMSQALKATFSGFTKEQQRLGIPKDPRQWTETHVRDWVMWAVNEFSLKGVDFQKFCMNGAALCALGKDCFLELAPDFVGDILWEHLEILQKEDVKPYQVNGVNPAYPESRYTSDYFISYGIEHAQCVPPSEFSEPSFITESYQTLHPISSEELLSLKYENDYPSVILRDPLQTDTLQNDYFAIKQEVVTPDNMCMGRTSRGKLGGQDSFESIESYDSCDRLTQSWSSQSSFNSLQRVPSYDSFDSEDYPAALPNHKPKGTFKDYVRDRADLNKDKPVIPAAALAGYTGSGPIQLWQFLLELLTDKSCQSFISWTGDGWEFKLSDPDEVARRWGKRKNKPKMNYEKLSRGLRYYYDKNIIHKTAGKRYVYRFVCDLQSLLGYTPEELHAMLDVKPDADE
Description: ETS1 binding intensity (PBM fluorescence), ETS1 alone (arbitrary fluorescence units); higher = stronger binding. The following applies: ETS1 concentration 1 nM; RUNX1 concentration 0 nM. The essentials:
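Recombinant full-length human ETS1 was applied at 1 nM, without RUNX1, to double-stranded Agilent 4 × 180k arrays of 36-bp genomic probes carrying a mutated RUNX1 partner site, following standard PBM protocols. Detection used an anti-ETS1 antibody (Cell Signaling Technology 14069) and an Alexa488-conjugated secondary antibody, with scanning on a GenePix 4400A. Each sequence was printed as four replicate spots. Binding level is the spot fluorescence intensity, summarised across replicates and not normalised.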
For the sequence CTTACGGCCTCGCGCCATGGGCAGTATCCGCCGCCA, the ETS1 binding intensity stood at 328.
Next, CCCGGAGGGTTCCGGGGGTCGGCCTACGGCGCGTGC: 529; TGCAGCGCATCCTGGGACGTGCAGGCGGTGCATGAG: 1550.
Next, TCCTATTTTTACAGCAGTTGCACAGGAAATGAGGCG: 1420; GACTAACGGGAAAGAAGGACGAGTACGCAGTCCCGG: 413.
Next, ACTCCACCTACCCTCAGAACGCACTTCCTCAGAAGC: 721; CCCGCTTCCGCGTTTTACTCGGTGCCTGCAGCGCCG: 6570; AGTTGGTTCCTTCCGGTGGGTTTATGGGCTTGGGGT: 13000.
AACACACAACGACAGACTTATTTCCTGTTTCAGATT: the ETS1 binding intensity is 6560.
In the case of GGGTGCTTCCTATAAACAATGACTCATTACAGCACT, the ETS1 binding intensity was 1600.
Next, AGTGCTGTAGGCGAGACTGCACAGGAAATAAAAAGA: 1180; TCGCTTCCTGCTCCACTTCTCGGCGCTCACATCTCC: 14200; GCAGTCGAGCTTCCAACATTTGGGGAAGTTGCACGA: 348 ± 26.
Next, ACCCGGATGTCGTTGGGCAGGAACTTCGGTGAGGGC: 3340.
Sequence ACAGCCGTCATCAAAACACCAGGTCCTTCCTCGGCC gave an ETS1 binding intensity of 375.
Then TGCCACGTCCGCCATCTTGAAACAACTGCCACTCGG, with 2370 ± 120; and GCCGCCAAAAGCTGCCTGGGTGACCCGGAAACGGCA, with 614.
Then CTCCGGGAGCCCCCAAGCGGCTTCCGGGTGCTCGCA, with 2130.
As for CGAGGTGTCCACTCTCCTCGGCATCCGCACCTGCCC, the ETS1 binding intensity was determined as 509.
Next, AGCCAGCTCTGGTGAAGGGAGGAAGCCTGAGAACTG: 342.
Next, ACGGTGCGTTTCCCCAACTACACCTCACGTCACGGA: 476; GCAGCAAGCGCGGAACTGGGGTTTCGGCGTCTAAGT: 394.
Then CTCACCTCGAAGCCCAGGAGCGGCCAGGAAATGAGC, with 476; and ACTGCTCAACGACACACAAGAACAGCAGGATGAGGT, with 420; and TGCACCCGCCACTTCCGCATCGAACCTCCGCTTCAA, with 7860.
In turn, CGCCTGAGGGCTGGTCCCCATCCTTCCTCTTAGACC registered an ETS1 binding intensity of 375.
Then GTCACCTGTGACTTTTGGGGTGGGGGAGGAAGAAGA, with 389; and AAAGTAGGTCCGGTCCGCGGGTGCAGTCGGGCATGC, with 462 ± 17; and GGTGACGTCAACGCGTTCACCAGCCCGGAAGTGCGC, with 1230.
Regarding GAGTTGCTTCCGGCCGTGTTGCTGGTCTGAATTGAG, the ETS1 binding intensity amounted to 19700.
As for CTCCTCTGTTGTCAGCCATCACTTCCTCCCAGCCCG, the ETS1 binding intensity turned out to be 1200.
Next, TCCCTTACCTTCCTGCTGCCACCAAAGCACCAAACC: 1890.
Then AACAAAGCACTCAATAGTGGCCAAACTACATCCTGG, with 631.
CAAGAATGAGAAAGGAAGCTGGCGGCTGGGCAGGTG registered an ETS1 binding intensity of 491.
Then GAGAGGTGCTTGCTGGGAGAGCTGTTCCGGCGCTCA, with 367; and CGTCCTGTCTCTGGCCTAGAAGCTTCCTGCCCCAGC, with 1080.
Turning to ATGGCGCCGACTGCAGCCACTTCCGTGATCCGCAGG, the ETS1 binding intensity turned out to be 1780.
Then CCTCGGTTCGGAAACGGCGAAAGCAAACAGCAAGGA, with 574; and TAAATAGGAAGTCAGAGTTTACTGCCGAACCTACAG, with 1170; and AACCAGTTCATCCTGGGAGCTGCTGCTGGTTCTTCA, with 427.
Then AGGCCTACGGCGGCAGAAGGAAAGACAAGGAAATAC, with 410.
Take CGCCGGACGGAACGCCTGGCACAGCCGCCGCTCGCT: the ETS1 binding intensity amounted to 324.
AGTTGCATACGCGGGATTGGGCAGGAAATGGCAGGG showed an ETS1 binding intensity of 1190.
Then AGCCGTGCTCAGCAGCAGCACGACTTCCGCCTCCGC, with 2660.
AGTGAGGTAGAGAGATATTTTTTGTATCCGTGTTGG yielded an ETS1 binding intensity of 454.
GTGTGGAAGGAGGAAGCGAGAATGTGATTACTTAGG: the ETS1 binding intensity was 732.
In turn, CATCTGTTGTCTCCTTGAAGTCACATCCCACAGGAG had an ETS1 binding intensity of 438.
Sequence AAAGCCATCCCGCGATTGTCAATGGCAGGAAGCCAC returned an ETS1 binding intensity of 478.
Then CCCCGCCTCTTCCGCTTCTGTTGTCTGATCTGCCTG, with 5640; and GGGACTGCAGTCCCGGGGAGCGCACCGGAAGTTCTC, with 4610.
Next, GAAGCGGAAGTCGCTGAGGGGTGGTGAAGCGGCTGG: 8260.
In turn, GTCCTCCAGGAAGCCCGCGCTAGCCACCGTGCCTTT showed an ETS1 binding intensity of 550.
Then CCTCTGCCAAAAGCACCATCCACTTCCCCACCCAAC, with 553; and GGAGGAAGTGACACCCACCCACTGCCCCCGTAAGGT, with 1160.
In turn, CAAACAGGTTCCGGCCGGACTACAGCGCCTACAATG yielded an ETS1 binding intensity of 3740.
Next, CCGGGACCGTTCCGCTTCACCTCCCACCCTCAGGTT: 422; CGTTCAGGGTTCCGCCTGAGCCTGCAGCACAGGACG: 473.
Then GCATGTTTTCCTGTGGAAGCGGCCTACAAAACCTGC, with 1950; and TTGACTGAGGGCCGAAGCCGGGCGGAAGCAGACAGG, with 526; and TCGCTCTGATAACGGCATCCCGGTTTCCGGGACGAC, with 2200.
Next, GGTGTCTACGGCAGCGCCTCAGAGTGGTTCCGGTCG: 508; CAAGGTGCTGTGCTCACATAAGCAGGAAGAGCCCCA: 476.
The sequence CAAGCCACTTCCTTTCTTGCTCCCAGAACCTGTGTT came in with an ETS1 binding intensity of 7990.
In turn, GGAGGAGTGCTTTCTGAGAGAAGGAAGCACCTGCCC gave an ETS1 binding intensity of 390.
Then CTAAGGCTGAGGGGATGGGATGACAGGAAGAGTATC, with 528.
The sequence CCCGGACCCTCAGCTGCGCCTACAGACACTTCCTAG had an ETS1 binding intensity of 419.
Take GGAGCGACGGAAGCACCTGAAGCGCTCTTTCCCCGA: the ETS1 binding intensity came to 752.
With GCGCAAAGCCGGAAGGAGGGGTTTGGGGCTGGGGAG, the ETS1 binding intensity worked out at 4130.
Next, GACTTGGGGGAAGTGGCTTGGTTTGCGTGGATTCTC: 726.
Regarding TCGGAACGGAAGGGAGGCACGAATCCGCGAGTGGAG, the ETS1 binding intensity came to 799.
Consider CCTGTCGTAATCCTTACCGTGGCGAGTTCCGCGCTC, for which the ETS1 binding intensity is 359.
Consider CCCGGCAGCGGATAGCGCCTGAGGGTCGCAGCAAAT, for which the ETS1 binding intensity was 336.
With TGATCAGGAAGGAGAAGCGCAGAGGTGGACCCTCAA, the ETS1 binding intensity was determined as 407.
Then CTCTTCCGGCCGCGAGGAGCGCGACAGCGGCCCCTG, with 14400; and CGTCGCTGGGGTCCCTGCCGCCGGAACCATTAAGGA, with 318.
Sequence ATAGACGACCCCAGCCTGTGCACCCTCAGGAAGTAA yielded an ETS1 binding intensity of 324.
The sequence CTGGAGAGGATGTGGCCCCAGTGAGGTTCTGTAACT yielded an ETS1 binding intensity of 1170.
Then AGCCCTCTGCAACTTCCCGGCCCCAGAGCCCCACCC, with 1000; and GGCCGGAAAGGGTCTTGAGAGGAGGTGCTTGCCTTA, with 801.
Next, GGAGCGCGCTGGGGACGTTTAAAGGAAATTTACAAT: 363.
